From the supplement of paper PMC12217912
Some of the results follow. Sequences were assembled here from the parent chain. Inactive controls read about 0.05.

B1: TEV protease; numbered along this chain (parent)
chain: MGESLFKGPRDYNPISSSICHLTNESDGHTTSLYGIGFGPFIITNKHLFRRNNGTLVVQSLHGVFKVKDTTTLQQHLVDGRDMIIIRMPKDFPPFPQKLKFREPQREERICLVTTNFQTKSMSSMVSDTSCTFPSGDGIFWKHWIQTKDGQCGSPLVSTRDGFIVGIHSASNFTNTNNYFTSVPKNFMELLTNQEAQQWVSGWRLNADSVLWGGHKVFMVKPEEPFQPVKEATQL

Variants of: B1
Experiment: raw area under fraction-flipped curve 0-4 h after induction (AUC4h, not background-subtracted), DNA-recorder readout of cleavage of the substrate (dimensionless); higher = more cleavage of the substrate by the protease variant
Settings: temperature: 34 °C; time window: 0-4 h after rhamnose induction
Description: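 In vivo DNA recorder in E. coli TOP10(DE3) ΔrhaA at 34 °C. Each TEVp single-site mutant (parent TEVp 0) is paired with a single-site variant of the 7-mer TEVs (canonical ENLYFQ|S). The substrate sits between flexible linkers in a Bxb1-sfGFP-TEVs-SsrA fusion, so cleavage stabilises Bxb1 and speeds flipping of a recombination array, read by NGS. The value is the raw area under the fraction-flipped curve over 0-4 h after rhamnose induction (AUC4h), with ≥20 reads per time point. It is not background-subtracted; inactive controls average about 0.047.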
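Note: Bxb1 expression induced with 0.2% (w/v) L-rhamnose at OD600 near 0.5, cultures sampled hourly, flipped fraction per protease–substrate barcode pair counted by paired-end Illumina sequencing.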

Variant | area with substrate ENLYFQA | area with substrate ENLYFQC | area with substrate ENLYFQF | area with substrate ENLYFQG | area with substrate ENLYFQH | area with substrate ENLYFQI | area with substrate ENLYFQL | area with substrate ENLYFQN | area with substrate ENLYFQQ | area with substrate ENLYFQR | area with substrate ENLYFQS | area with substrate ENLYFQT | area with substrate ENLYFQW | area with substrate ENLYFQY | area with substrate ENLYFQD | area with substrate ENLYFQK | area with substrate ENLYFQM | area with substrate ENLYFQV | area with substrate ENLYFQP | area with substrate ENLYFQE
V229S | 0.0872 | 0.118 | 0.0819 | 0.114 | 0.0924 | 0.0469 | 0.0711 | 0.0699 | 0.0867 | 0.0443 | 0.105 | 0.072 | 0.0706 | 0.101 |  |  |  |  |  | 
V183Q | 0.0486 |  |  | 0.0398 |  |  | 0.049 | 0.0492 |  | 0.0541 | 0.0611 | 0.0699 | 0.0389 |  | 0.0765 | 0.056 | 0.0478 | 0.0489 |  | 
W212L | 0.0971 |  | 0.109 |  | 0.0811 | 0.053 | 0.069 | 0.0957 | 0.0789 | 0.0602 | 0.12 | 0.0682 | 0.0766 |  | 0.0752 |  |  | 0.0559 | 0.0476 | 
T30E |  | 0.0909 | 0.0962 | 0.0946 |  |  | 0.0594 | 0.0815 |  | 0.0702 | 0.0971 | 0.0631 | 0.0762 |  | 0.0678 | 0.0614 | 0.0702 | 0.076 | 0.0561 | 
A207W |  | 0.0888 | 0.0645 | 0.0849 | 0.0686 | 0.0825 | 0.0546 | 0.0591 |  |  | 0.0975 |  | 0.0873 | 0.0775 |  | 0.0618 | 0.0953 | 0.0626 | 0.0647 | 
V78R |  | 0.0577 | 0.0486 |  | 0.04 | 0.0474 | 0.0404 |  |  |  | 0.057 | 0.0658 |  |  |  | 0.0602 |  |  |  | 
V78L |  | 0.0982 |  |  | 0.0822 |  | 0.0555 | 0.079 |  | 0.055 | 0.103 |  |  |  |  | 0.058 | 0.074 | 0.0325 |  | 
E107P | 0.0946 | 0.0853 |  |  | 0.0733 |  | 0.062 | 0.0275 |  | 0.0502 | 0.0973 |  | 0.0573 |  | 0.0705 | 0.0576 | 0.0894 | 0.0621 | 0.0462 | 0.0681
I84R | 0.0528 | 0.0523 |  |  |  | 0.0498 | 0.0602 | 0.053 | 0.0284 | 0.0536 | 0.061 | 0.054 | 0.0596 | 0.0324 | 0.0612 | 0.0555 | 0.0559 |  |  | 
S182P | 0.12 | 0.129 | 0.0741 |  | 0.0878 |  |  | 0.0652 |  |  | 0.118 | 0.0743 |  | 0.0753 |  |  | 0.101 | 0.0534 |  | 
K230Q |  | 0.112 | 0.0863 |  | 0.0811 | 0.0584 |  | 0.0693 | 0.0672 |  | 0.0972 | 0.0584 | 0.0671 | 0.0852 | 0.0563 | 0.0612 | 0.0833 | 0.0589 |  | 0.0793
P89Q |  | 0.0868 |  | 0.081 |  |  |  | 0.0747 | 0.0642 | 0.0545 | 0.0818 | 0.0442 | 0.0498 | 0.0715 | 0.0672 |  | 0.097 |  | 0.0441 | 
R10F | 0.0932 | 0.113 |  |  | 0.0651 | 0.052 | 0.0498 | 0.0804 |  | 0.0577 | 0.0954 | 0.053 | 0.0628 |  | 0.0658 | 0.0595 | 0.0846 | 0.0599 | 0.0576 | 
